From the supplement of paper PMC8728848
The list shows a part of the results.

Experiments:
Assay in all cases: glycan array binding signal (z-score within array); higher = stronger binding
Details in all cases: glycan notation: IUPAC condensed, linker removed
[1] = molecular target: Gal(b1-3)GlcNAc(b1-6)[Gal(b1-3)]GalNAc
Summary of the method: (§1)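 From the Consortium for Functional Glycomics database, 3228 arrays were curated, keeping only those whose protein sequence was available. Binding is given as a within-array Z-score averaged across arrays sharing a protein sequence and across linkers. Negative Z-scores can be read as non-binding.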

Gal(b1-3)GlcNAc6S = molecular target: Gal(b1-3)GlcNAc6S
Summary of the method: as §1

[2] = molecular target: Gal(b1-3)[Fuc(a1-4)]GlcNAc
Summary of the method: as §1

[3] = molecular target: Gal(b1-3)[Fuc(a1-4)]GlcNAc(b1-2)Man
Summary of the method: as §1

[4] = molecular target: Gal(b1-3)[Fuc(a1-4)]GlcNAc(b1-2)Man(a1-3)[Gal(b1-3)[Fuc(a1-4)]GlcNAc(b1-2)Man(a1-6)]Man(b1-4)GlcNAc(b1-4)[Fuc(a1-6)]GlcNAc
Summary of the method: as §1

[5] = molecular target: Gal(b1-3)[Fuc(a1-4)]GlcNAc(b1-3)Gal(b1-3)[Fuc(a1-4)]GlcNAc
Summary of the method: as §1

[6] = molecular target: Gal(b1-3)[Fuc(a1-4)]GlcNAc(b1-3)Gal(b1-4)[Fuc(a1-3)]GlcNAc
Summary of the method: as §1

[7] = molecular target: Gal(b1-3)[Fuc(a1-4)]GlcNAc(b1-6)GalNAc
Summary of the method: as §1

[8] = molecular target: Gal(b1-3)[GlcNAc(b1-6)]GalNAc
Summary of the method: as §1

[9] = molecular target: Gal(b1-3)[Neu5Ac(a2-6)]GalNAc
Summary of the method: as §1

[10] = molecular target: Gal(b1-3)[Neu5Ac(a2-6)]GlcNAc(b1-4)Gal(b1-4)Glc
Summary of the method: as §1

[11] = molecular target: Gal(b1-3)[Neu5Ac(b2-6)]GalNAc
Summary of the method: as §1

Gal(b1-4)Gal = molecular target: Gal(b1-4)Gal
Summary of the method: as §1

[12] = molecular target: Gal(b1-4)GalNAc(a1-3)[Fuc(a1-2)]Gal(b1-4)GlcNAc
Summary of the method: as §1

[13] = molecular target: Gal(b1-4)GalNAc(b1-3)[Fuc(a1-2)]Gal(b1-4)GlcNAc
Summary of the method: as §1

Gal(b1-4)Glc = molecular target: Gal(b1-4)Glc
Summary of the method: as §1

Gal(b1-4)Glc6S = molecular target: Gal(b1-4)Glc6S
Summary of the method: as §1

Gal(b1-4)GlcNAc = molecular target: Gal(b1-4)GlcNAc
Summary of the method: as §1

[14] = molecular target: Gal(b1-4)GlcNAc(a1-6)Gal(b1-4)GlcNAc
Summary of the method: as §1

Gal(b1-4)GlcNAc(b1-2)Man = molecular target: Gal(b1-4)GlcNAc(b1-2)Man
Summary of the method: as §1

[15] = molecular target: Gal(b1-4)GlcNAc(b1-2)Man(a1-3)Man(b1-4)GlcNAc(b1-4)GlcNAc
Summary of the method: as §1

[16] = molecular target: Gal(b1-4)GlcNAc(b1-2)Man(a1-3)[Gal(b1-4)GlcNAc(b1-2)Man(a1-6)]Man(b1-4)GlcNAc(b1-4)GlcNAc
Summary of the method: as §1

[17] = molecular target: Gal(b1-4)GlcNAc(b1-2)Man(a1-3)[Gal(b1-4)GlcNAc(b1-2)Man(a1-6)]Man(b1-4)GlcNAc(b1-4)[Fuc(a1-6)]GlcNAc
Summary of the method: as §1

[18] = molecular target: Gal(b1-4)GlcNAc(b1-2)Man(a1-3)[Gal(b1-4)GlcNAc(b1-2)Man(a1-6)][Gal(b1-4)GlcNAc(b1-4)]Man(b1-4)GlcNAc(b1-4)[Fuc(a1-6)]GlcNAc
Summary of the method: as §1

[19] = molecular target: Gal(b1-4)GlcNAc(b1-2)Man(a1-3)[Gal(b1-4)GlcNAc(b1-2)Man(a1-6)][GlcNAc(b1-4)]Man(b1-4)GlcNAc(b1-4)[Fuc(a1-6)]GlcNAc
Summary of the method: as §1

[20] = molecular target: Gal(b1-4)GlcNAc(b1-2)Man(a1-3)[GlcNAc(b1-2)Man(a1-6)]Man(b1-4)GlcNAc(b1-4)GlcNAc
Summary of the method: as §1

[21] = molecular target: Gal(b1-4)GlcNAc(b1-2)Man(a1-3)[GlcNAc(b1-4)][Gal(b1-4)GlcNAc(b1-2)Man(a1-6)]Man(b1-4)GlcNAc(b1-4)GlcNAc
Summary of the method: as §1

[22] = molecular target: Gal(b1-4)GlcNAc(b1-2)Man(a1-3)[Man(a1-6)]Man(b1-4)GlcNAc(b1-4)GlcNAc
Summary of the method: as §1

[23] = molecular target: Gal(b1-4)GlcNAc(b1-2)Man(a1-6)Man(b1-4)GlcNAc(b1-4)GlcNAc
Summary of the method: as §1

[24] = molecular target: Gal(b1-4)GlcNAc(b1-2)Man(a1-6)[GlcNAc(b1-2)Man(a1-3)]Man(b1-4)GlcNAc(b1-4)GlcNAc
Summary of the method: as §1

[25] = molecular target: Gal(b1-4)GlcNAc(b1-2)Man(a1-6)[Man(a1-3)]Man(b1-4)GlcNAc(b1-4)GlcNAc
Summary of the method: as §1

[26] = molecular target: Gal(b1-4)GlcNAc(b1-2)[Gal(b1-4)GlcNAc(b1-4)]Man(a1-3)[Gal(b1-4)GlcNAc(b1-2)Man(a1-6)]Man(b1-4)GlcNAc(b1-4)GlcNAc
Summary of the method: as §1

[27] = molecular target: Gal(b1-4)GlcNAc(b1-2)[Gal(b1-4)GlcNAc(b1-4)]Man(a1-3)[Gal(b1-4)GlcNAc(b1-2)[Gal(b1-4)GlcNAc(b1-6)]Man(a1-6)]Man(b1-4)GlcNAc(b1-4)GlcNAc
Summary of the method: as §1

[28] = molecular target: Gal(b1-4)GlcNAc(b1-2)[Gal(b1-4)GlcNAc(b1-4)]Man(a1-3)[GlcNAc(b1-4)][Gal(b1-4)GlcNAc(b1-2)Man(a1-6)]Man(b1-4)GlcNAc(b1-4)GlcNAc
Summary of the method: as §1

[29] = molecular target: Gal(b1-4)GlcNAc(b1-2)[Gal(b1-4)GlcNAc(b1-4)]Man(a1-3)[GlcNAc(b1-4)][Gal(b1-4)GlcNAc(b1-2)[Gal(b1-4)GlcNAc(b1-6)]Man(a1-6)]Man(b1-4)GlcNAc(b1-4)GlcNAc
Summary of the method: as §1

[30] = molecular target: Gal(b1-4)GlcNAc(b1-2)[Gal(b1-4)GlcNAc(b1-6)]Man(a1-6)[Gal(b1-4)GlcNAc(b1-2)Man(a1-3)]Man(b1-4)GlcNAc(b1-4)GlcNAc
Summary of the method: as §1

[31] = molecular target: Gal(b1-4)GlcNAc(b1-2)[Gal(b1-4)GlcNAc(b1-6)]Man(a1-6)[Gal(b1-4)GlcNAc(b1-2)Man(a1-3)]Man(b1-4)GlcNAc(b1-4)[Fuc(a1-6)]GlcNAc
Summary of the method: as §1

[32] = molecular target: Gal(b1-4)GlcNAc(b1-2)[Gal(b1-4)GlcNAc(b1-6)]Man(a1-6)[GlcNAc(b1-4)][Gal(b1-4)GlcNAc(b1-2)Man(a1-3)]Man(b1-4)GlcNAc(b1-4)GlcNAc
Summary of the method: as §1

[33] = molecular target: Gal(b1-4)GlcNAc(b1-2)[Gal(b1-4)GlcNAc(b1-6)]Man(a1-6)[GlcNAc(b1-4)][Gal(b1-4)GlcNAc(b1-2)[Gal(b1-4)GlcNAc(b1-4)]Man(a1-3)]Man(b1-4)GlcNAc(b1-4)[Fuc(a1-6)]GlcNAc
Summary of the method: as §1

[34] = molecular target: Gal(b1-4)GlcNAc(b1-3)Gal(b1-3)GalNAc
Summary of the method: as §1

[35] = molecular target: Gal(b1-4)GlcNAc(b1-3)Gal(b1-3)GlcNAc
Summary of the method: as §1

[36] = molecular target: Gal(b1-4)GlcNAc(b1-3)Gal(b1-4)Glc
Summary of the method: as §1

[37] = molecular target: Gal(b1-4)GlcNAc(b1-3)Gal(b1-4)GlcNAc
Summary of the method: as §1

[38] = molecular target: Gal(b1-4)GlcNAc(b1-3)Gal(b1-4)GlcNAc(b1-2)Man(a1-3)[Gal(b1-4)GlcNAc(b1-3)Gal(b1-4)GlcNAc(b1-2)Man(a1-6)]Man(b1-4)GlcNAc(b1-4)GlcNAc
Summary of the method: as §1

[39] = molecular target: Gal(b1-4)GlcNAc(b1-3)Gal(b1-4)GlcNAc(b1-2)Man(a1-3)[Gal(b1-4)GlcNAc(b1-3)Gal(b1-4)GlcNAc(b1-2)Man(a1-6)]Man(b1-4)GlcNAc(b1-4)[Fuc(a1-6)]GlcNAc
Summary of the method: as §1

B1: Pwp2 (Candida glabrata) (protein)
chain: MGSSHHHHHHSSGLVPRGSHMASKNPVELNNVCTFPNDYGRIPGFTVLVGRLGLLISASDYKELLRYPGAFLIATQDTMTTSPNFELTGFPFFTGLYGLTVFPLDLLVELRGYFVPPNSGQYTFTLSDSDDAAIIFLGNPSAFPCGDLQNWPKPSEEDITVTDHLFPSRTLYLIEGVAYPMRIAYYNGIGAGRLNAAFIDPSGTRHTNWEGYIWQYDPCSTCTYS
- glycan array binding signal (z-score) [1]: -0.444
- glycan array binding signal (z-score) (Gal(b1-3)GlcNAc6S): -0.087
- glycan array binding signal (z-score) [2]: 1.68
- glycan array binding signal (z-score) [3]: -0.524
- glycan array binding signal (z-score) [4]: 0.329
- glycan array binding signal (z-score) [5]: 0.792
- glycan array binding signal (z-score) [6]: -0.082
- glycan array binding signal (z-score) [7]: 0.385
- glycan array binding signal (z-score) [8]: -0.842
- glycan array binding signal (z-score) [9]: -0.199
- glycan array binding signal (z-score) [10]: -0.428
- glycan array binding signal (z-score) [11]: -0.405
- glycan array binding signal (z-score) (Gal(b1-4)Gal): -0.485
- glycan array binding signal (z-score) [12]: -0.362
- glycan array binding signal (z-score) [13]: -0.465
- glycan array binding signal (z-score) (Gal(b1-4)Glc): -0.439
- glycan array binding signal (z-score) (Gal(b1-4)Glc6S): -0.503
- glycan array binding signal (z-score) (Gal(b1-4)GlcNAc): -0.286
- glycan array binding signal (z-score) [14]: 0.426
- glycan array binding signal (z-score) (Gal(b1-4)GlcNAc(b1-2)Man): -0.448
- glycan array binding signal (z-score) [15]: -0.448
- glycan array binding signal (z-score) [16]: -1.15
- glycan array binding signal (z-score) [17]: -0.46
- glycan array binding signal (z-score) [18]: -0.627
- glycan array binding signal (z-score) [19]: -0.477
- glycan array binding signal (z-score) [20]: 0.19
- glycan array binding signal (z-score) [21]: -0.617
- glycan array binding signal (z-score) [22]: -0.014
- glycan array binding signal (z-score) [23]: 1.94
- glycan array binding signal (z-score) [24]: -0.358
- glycan array binding signal (z-score) [25]: -0.14
- glycan array binding signal (z-score) [26]: 1.09
- glycan array binding signal (z-score) [27]: -0.603
- glycan array binding signal (z-score) [28]: -0.295
- glycan array binding signal (z-score) [29]: -0.248
- glycan array binding signal (z-score) [30]: -0.407
- glycan array binding signal (z-score) [31]: 0.691
- glycan array binding signal (z-score) [32]: -0.569
- glycan array binding signal (z-score) [33]: -0.503
- glycan array binding signal (z-score) [34]: -0.128
- glycan array binding signal (z-score) [35]: 0.239
- glycan array binding signal (z-score) [36]: -0.415
- glycan array binding signal (z-score) [37]: -0.494
- glycan array binding signal (z-score) [38]: 0.573
- glycan array binding signal (z-score) [39]: 2.6
